The chains are these.
B1: LINE1-mini (parent)
chain: GGCAGAGCUCAACACAGCGUGGCAAAGUGGCUGUGGCUAGACUGCC

Read counts are not given, so values of variants with three or more changes are uncertain.

In the data set the parent is B1. Briefly: self-cleavage, relative activity (ratio to wild type); higher = more cleavage; in vitro, sequencing; the parent is a self-cleaving ribozyme.
As to GGUAGAGUUCAACACAGCGUGGCAAAGUGGCUGUGGCUAGACUACC, the self-cleavage stood at 0.36.
Turning to GGUAGAGCUAAACUCAGCGUGGCAAAGUGGCUGUGGCUAGACUGCC, the self-cleavage came to 0.03.
Turning to GGUAGAGCUCAACACAGCGUGGCAGAGUGGCUGUGGCUAGACUGCA, the self-cleavage came out at 0.08.
On to GGUAGAGCUCAACACAGCGUGGCAAGGUGGCUGUGGCUAGAGUGGC, for which the self-cleavage amounted to 0.11.
The value for GGUAGAGCUAAACACAGCGUGGCAAAGUGGCUUUGGCUAGACUGCC was 0.05; that for GGUAGAGGUCAACACAGCGUGGCAAAGUGGCUGUGGAUAGACUGCC was 0.13.
With GGUAGAGCUAAACACAGCGUGUCAAAGUAGCUGUGGCUAGACUGCC, the self-cleavage came to 0.02.
Take GGUAGAGCUCAACACAGCGUGGCAUGGUGGCUGUGGCUAGACUCCC: the self-cleavage is 0.14.
Turning to GGUAGAGCUCAACACUGCGUGGCAAAGGGGCUGUGGCUAGAAUGCC, the self-cleavage turned out to be 0.05.
Regarding GGUAGAGCUCAACACUGCGUGGCAAAGUGGCUGUGGCUAGACAGCC, the self-cleavage stood at 0.1.
Regarding GGUAGAGAUCAACACAGCGUGGCAAGGUGGCCGUGGCUAGACUGCC, the self-cleavage came to 0.17.
Take GGUAGAGCUAAACACAGAUUGGCAACGUGGCCGUGGCUAGACCGCC: the self-cleavage stood at 0.02.
On to GGUAGAGCUAAACACAGCGUGGCAAAGUGGCUGAGGAUAGACUGCC, for which the self-cleavage came to 0.01.
As to GGUAGAGGUCAACACAGCGUGGCAAAGUGGCUGGGGCUAGACUGGC, the self-cleavage amounted to 0.08.
The value for GGUAGAGCUGAACACAGCGUGGCAUAGUGGCUGUGGCUAGACUGCC was 0.03.
Take GGUAGAGAUCAACACGGCGUGGCAAAGUGGCUGUGGCUAGAAUGCC: the self-cleavage turned out to be 0.06.
Regarding GGUAGAGAUCUACACAGCGUGGCAACGUGGCUGUGGCUAGACUGCC, the self-cleavage came to 0.01.
As to GGUAGAGCUCAACACAGCGUGGCCAAGUGGCUGAGGCUAGACUGCC, the self-cleavage turned out to be 0.08.
The value for GGUAGAGCUCAACGCAGCGUGGCAAAGUGGCUGUGUCUAGACUGCC was 0.28; that for GGUAGAGCUCAACUGAGCGUGGCAAAGUGGCUGUGGCUAGACUGGC was 0.04.
As for GGUAGAGUUCAACACAGCGUGGCAAAGUAGCUGUGGCUAGACUACC, the self-cleavage amounted to 0.23.
Take GGUAGAGCUCAACACAGCGUGGCAAGGCGGCUGUGUCUAGAAUGCC: the self-cleavage was found to be 0.05.
Regarding GGUAGAGGUCAACACAGCGUGGCAAAGUAGCUGUGGCUAGACCGCC, the self-cleavage was 0.01.
On to GGUAGAGUUCAACACAGCGUGGCAAAGUGGCUGUGGCUCAACCGGC, for which the self-cleavage worked out at 0.1.
Consider GGUAGAGUUCAACACAGCGUGGCAACGGGGCUGUGGCUAGACUGCC, for which the self-cleavage was found to be 0.02.
GGUAGAGAUCAACACAGCGUGGCAAAGUGGCUGUGGGUAGACUGCC: the self-cleavage is 0.22.
With GGUAGAGCUCAACGCAGCGUGGCAAAGUGGCUGUGGCUAUACUGCC, the self-cleavage was 0.02.
As for GGUAGAGCUCAACGCAGCGUGGCAAAGUGGCUGUGGCUACACUGCC, the self-cleavage came out at 0.03.
Regarding GGUAGAGCUCAACUCAGCGUGGCAAAGUGGCUGUGUCUAGACUGCC, the self-cleavage came out at 0.23.
Turning to GGUAGAGUUCAACACAGCGUGGCAAAGUGGCUGUGGCUAGACUGCG, the self-cleavage was 0.08.
On to GGUAGAGUUCAACACAGCGUGGCAAAGUGGGAGGGGCUAGACUGCC, for which the self-cleavage is 0.23.
With GGUAGAGCUCAACACAGCGUGGCGAAGUCGCUGUGGCUAGACUGCC, the self-cleavage was 0.17.
For GGUAGAGCUGAACACCGUGUGGCAAUGUGGCUCUGGCUAGACUGCC, the self-cleavage came out at 0.02.
Consider GGUAGAGAUCGACACAGCGUAUCAAAGUGGCUGUGGCUAGACUGCC, for which the self-cleavage was 0.02.
Consider GGUAGAGCUCAACACAGCGUGGCAAAGUGGCUGUGGCUAGUCUGCU, for which the self-cleavage came out at 0.59.
As for GGUAGAGCUAAACACAGCGUGGCAACGUGGCUGUGGCUAUACUCCC, the self-cleavage worked out at 0.02.
Take GGUAGAGCUCAACACAGCGUGGCAACGUGGCUGUGGCUAUAAUGCC: the self-cleavage amounted to 0.11.
As for GGUAGAGCUCAACACAGCGUGGCAACGUGGCUAUGUCUAGUCUGCC, the self-cleavage stood at 0.09.
Consider GGUAGAGAUCAACACAGCGUGGCAAAGUGGCUGUGGCUAGAAUGCC, for which the self-cleavage came out at 0.31.
Turning to GGUAGAGUUCAACAAAGAGUGGCAAAGUGGCUCUGACUAGACUGCC, the self-cleavage came to 0.05.
For GGUAGAGCUCAACACAGCGUGGCGAAGUGGCUGGGGAUAGACUGCC, the self-cleavage was found to be 0.29.
The value for GGUAGAGGUCAACACAGCGUGGCAAAGUGGCUGUGGCUAUUCUGCC was 0.1; that for GGUAGAGAUCAACACAGCGUGGCAAAGUGGCUGGGGCUAGACUGCC was 0.3; that for GGUAGAGCUCAACGCAGCGUGGCAAAGUGGCUUUGGCUAUACUGGC was 0.07.
Regarding GGUAGAGCUAAAUACAGCGUGUCAAAGUGGCUGUGGCUAGACUACC, the self-cleavage came to 0.04.
Take GGUAGAGCUCAACACAGCGUGGCCAAGUGGCUGAUGCUAGACUGCC: the self-cleavage came out at 0.1.
The result for GGUAGAGCUAAACACAGCGGGGCAAAGUUGCUGUGGCUAUACUGCC reads 0.01; that for GGUAGAGCUCAACACAGCGUGGCACAGUGGCUGCGGCUAGACUGCC, 0.06.
As to GGUAGAGUUCAACACAGCGUGGCAAACUGACUGUGGCUAGACUGCC, the self-cleavage worked out at 1.12.
The result for GGUAGAGCUCAACACUGCGUAGCAAAGUGGCUGUGGCGAGACUGCC reads 0.05.
Regarding GGUAGAGCUAAACACAGCGUGGCGAAGUGGCUGUGCCUAGACUGCC, the self-cleavage amounted to 0.
The value for GGUAGAGCUCAACACCGCGUGGCAAAGUCUCUUUGGCUAGACUGCC was 0.05; that for GGUAGAGCUCAACACAGCGUGGCUAAGUGGCUGUGUCUAGACUGCC was 0.04; that for GGUAGAGCUCAACGCAGCGUAGCAAAGUGGCUAUGGCUAGACUGCC was 0.07.
As to GGUAGAGCUACACACAGCGUGGCAAAGUGGCUGUGGCUAGACUCCC, the self-cleavage was 0.04.
Consider GGUAGAGAUCAACACAGCGUGGCAUAGUGGCUGUGGCUAGACUGCC, for which the self-cleavage stood at 0.21.
